This is an account of results in ChEMBL document CHEMBL4888484, “Replenishing the malaria drug discovery pipeline: Screening and hit evaluation of the MMV Hit Generation Library 1 (HGL1) against asexual blood stage Plasmodium falciparum ,using a nano luciferase reporter read-out” (2022).

Molecules are shown by their SMILES. The campaign covered roughly 150,000 compounds. About 540 (0.36%) showed an effect of 50% or more. The list shows a part of the results.

The test system of the assay is Plasmodium falciparum. Put plainly: Primary screen in NF54 nanoGlo assay, in single point, at 2uM, 72h; a lower Z score goes with more inhibition. It counts as functional, Erythrocyte. The settings on record: timepoint 72 hour.
Broadly, the % Inhibition is the change of the read-out against control, counted positive when it falls. On to `O=C1CCCc2cn(nn2)CCNC(=O)[C@H](Cc2ccccc2)N1`, for which the “% Inhibition” value is given as -1% and the Z score was determined as 0.22.

Consider `Cc1n[nH]cc1CN(C)Cc1[nH]cnc1C`, for which the “% Inhibition” value is given as -4% and the Z score was found to be 0.71.

For the molecule `CCc1cc(C(=O)N2CC(c3nc4ccccc4[nH]3)C2)n(C)n1`, the “% Inhibition” value is reported as -5% and the Z score is given as 0.64.

For the molecule `CC(NC(C(N)=O)c1cccc(Br)c1)c1ccco1` (centres undefined), the “% Inhibition” value worked out at 1% and the Z score is reported as -0.16.

With `CCn1nc(-c2cccc([C@H](C)OC)c2)nc1N(C)C`, the “% Inhibition” value is on record as -17% and the Z score is 1.56.

Take `COC1CN(C(=O)c2oc(C3CC3)nc2C)C1`: the “% Inhibition” value was found to be 2% and the Z score is on record as -0.34.

`CC[C@@H](c1ccc(F)cc1)n1cnc2c(cnc(=O)n2C)c1=O`: the “% Inhibition” value is on record as -10% and the Z score was 2.19.

As to `CC(C(=O)Nc1cccc(C(F)(F)F)c1)(C(F)(F)F)C(F)(F)F`, the “% Inhibition” value is reported as -16% and the Z score turned out to be 3.05.

Consider `CCCNC(=O)c1[nH]cnc1C(=O)NCC1CCCCC1`, for which the “% Inhibition” value is reported as 4% and the Z score is recorded as -0.79.

For the molecule `CC(=O)NCCNS(=O)(=O)c1cc(N(C)C)ccc1Br`, the “% Inhibition” value is given as 23% and the Z score is given as -2.58.

Regarding `Cc1coc2ccc(NC(=O)NCC(F)(F)F)cc12`, the “% Inhibition” value is listed as 0% and the Z score is reported as 0.

With `CC(C)C[C@H](C)N(C)C(=O)c1cc(S(=O)(=O)N2CCCC2)c[nH]1`, the “% Inhibition” value is on record as -10% and the Z score was found to be 1.03.

On to `CCc1nccc(CN2CC[C@H](O)CC(C)(C)C2)n1`, for which the “% Inhibition” value is -1% and the Z score is 0.1.

Take `CCCNC(=O)N(CC(=O)N1CCN(c2ccc(-c3ccc(OC)c(OC)c3)nn2)CC1)Cc1ccco1`: the “% Inhibition” value was -14% and the Z score came to 1.2.

Regarding `Cc1ccn(CC(=O)NCC2(N3CCOCC3)CCCCC2)c(=O)c1C#N`, the “% Inhibition” value was -6% and the Z score turned out to be 1.23.

With `Cc1c(C(=O)N2CCCCC2)c(C(F)(F)F)nn1[C@H]1CCCN(C)C1`, the “% Inhibition” value is recorded as 4% and the Z score is on record as -0.54.

In the case of `NC[C@@H](C(=O)Nc1ccc2[nH]ncc2c1)c1ccccc1`, the “% Inhibition” value was -1% and the Z score came out at 0.14.

On to `Cn1nc2nc(N3CCN(Cc4ccc(F)cc4)CC3)nc(-c3ccccc3F)c2c1N`, for which the “% Inhibition” value is -8% and the Z score stood at 0.76.

With `Cc1cc(C(C)C)nc(NCc2nccn2C(F)F)n1`, the “% Inhibition” value is listed as -10% and the Z score worked out at 1.17.

As to `Cc1nc(C)n(CC(=O)N2CCC[C@H](C(=O)c3ccc(C(F)(F)F)cc3)C2)n1`, the “% Inhibition” value is -3% and the Z score stood at 0.59.

`CC(=O)NCCn1ccnc1-c1cc2ccccc2s1`: the “% Inhibition” value is -5% and the Z score was determined as 0.85.

On to `CN(Cc1nccs1)C(=O)[C@H]1CCOc2ccccc2C1`, for which the “% Inhibition” value is on record as -12% and the Z score came to 2.

Regarding `Cc1n[nH]c(C)c1S(=O)(=O)NC(C)(C)C`, the “% Inhibition” value is 0% and the Z score worked out at 0.01.

For `CC(C)(c1ccccc1)c1ccc2cc(O)cc(N3CCCCC3)c2c1`, the “% Inhibition” value came to 3% and the Z score is reported as -0.42.

Regarding `CCc1cccc(NC(=O)Cn2c(=O)n(Cc3ccc(C)cc3)c(=O)c3nn(CC)cc32)c1`, the “% Inhibition” value is recorded as -2% and the Z score was determined as 0.24.

For `COc1ccnc(NC(=O)CCC(C)C)c1`, the “% Inhibition” value is recorded as -16% and the Z score amounted to 2.23.

As to `CC[C@H]1CN(Cc2cc(C#N)n(C)c2C)CCN1C(C)C`, the “% Inhibition” value is -13% and the Z score is 2.27.

Consider `Cc1c(C(=O)NC[C@](C)(O)c2ccc(F)cc2F)cnn1C`, for which the “% Inhibition” value stood at 33% and the Z score is on record as -4.48.

Turning to `CC(C)(C)c1nnc2ccc(N[C@H]3C[C@@](C)(O)C3)nn12`, the “% Inhibition” value is -4% and the Z score stood at 0.62.

For `COc1ccc(NC(=O)Nc2ccc3c(c2)C(N2CCOCC2)=Nc2ccccc2O3)cc1`, the “% Inhibition” value worked out at 6% and the Z score is listed as -1.09.

Take `CC(C)NC(=O)[C@@H]1COC2(CCN(C(=O)c3cccs3)CC2)N1C(=O)c1ccc(F)cc1`: the “% Inhibition” value came out at 1% and the Z score is listed as -0.17.

As for `CCc1c(C(=O)N2CCC(C(=O)O)(n3cccn3)CC2)csc1C`, the “% Inhibition” value was -7% and the Z score worked out at 1.25.

With `CC(C)[C@H](C)N1Cc2cccc(NCc3nnc(C(C)(C)C)o3)c2C1`, the “% Inhibition” value is reported as 8% and the Z score was -1.05.

On to `CC(C)(C)C(=O)NCCCC(=O)NC1CCCC1`, for which the “% Inhibition” value is -9% and the Z score worked out at 1.86.

For the molecule `CCOC(=O)N1CCC(NC(=O)c2cc(-c3cccc(OC)c3)nn2C)CC1`, the “% Inhibition” value was 6% and the Z score is recorded as -0.88.

`CCN(C(=O)C1CCCN(C(=O)NC2CCCC2)C1)C1CC(=O)NC1=O` (centres undefined): the “% Inhibition” value is -4% and the Z score is reported as 0.67.

For `Cc1ncsc1[C@@H]1CC(=O)Nc2nc(N3CCC(C)CC3)nc(O)c21`, the “% Inhibition” value is recorded as 37% and the Z score is given as -5.33.

Take `COCCN(CCOC)C[C@H](O)Cn1c(-c2ccccc2)c(-c2ccccc2)c2cc(C)ccc21`: the “% Inhibition” value is listed as 0% and the Z score was determined as 0.06.

Take `CCN1CCCN(C(=O)c2ccc(C(=O)N3CCOCC3)cc2)CC1`: the “% Inhibition” value is -2% and the Z score worked out at 0.33.

For `COc1ccc2c(c1)C(N1CCCN(C(=O)Nc3ccc(C(C)C)cc3)CC1)=Nc1cc(C(F)(F)F)ccc1O2`, the “% Inhibition” value was -1% and the Z score amounted to 0.08.

In the case of `CCc1ccc(-c2cn3c(-c4ccccc4)c(-c4ccccc4)nc3[nH]2)cc1`, the “% Inhibition” value was -7% and the Z score worked out at 0.75.

In the case of `CCC[C@]1(CO)CCCN1C(=O)c1ccc(=O)[nH]n1`, the “% Inhibition” value was 3% and the Z score is given as -0.23.
